For assay [1], the system named is HSkMC (human skeletal muscle cells). Nature of the assay: cytotoxicity call (relative viability < 0.9). The following applies: 10 µM.
The subject of assay [2] is HepG2. As to the kind of experiment: cytotoxicity call (relative viability < 0.9). The following applies: 10 µM.
Assay [3] concerns S. aureus RN4220. Nature of the assay: growth inhibition call (relative growth <= 0.2). The following applies: 50 µM.

The values below come from the antibiotic and cytotoxicity screens of Wong et al. (2023).

This is one part of the list.

As to `COC(=O)C1CCN(S(=O)(=O)c2c(C)n(C)c(=O)n(C)c2=O)CC1`, the cytotoxicity call in assay [1] and in assay [2] was “inactive” each time. Besides, the growth inhibition call in assay [3] is “inactive”.
Take `Cl.O=C1CN2Cc3c(ccc(Cl)c3Cl)N=C2N1`: the cytotoxicity call in assay [1] is “inactive”. For the same molecule, the cytotoxicity call in assay [2] was “active”. In assay [3], the growth inhibition call is “inactive”.
`COc1ccc(S(=O)(=O)Nc2ccc3c(c2)C(=O)N([C@@H](C)CO)C[C@H](C)[C@H](CN(C)C(=O)Nc2ccccc2)OCCCC[C@@H](C)O3)cc1`: the cytotoxicity call in assay [1] and in assay [2] was “inactive” each time. The growth inhibition call in assay [3] is “inactive”.
For `CN1CCN(C(=O)C[C@H]2CC[C@@H]3[C@H](COC[C@@H](O)CN3Cc3ccc4c(c3)OCO4)O2)CC1`, the cytotoxicity call in assay [1] and in assay [2] was “inactive” each time. In addition, the growth inhibition call in assay [3] is “inactive”.
For `Cc1cc(C(=O)Nc2cccc3c2O[C@@H](CN(C)S(=O)(=O)c2cccs2)[C@H](C)CN([C@H](C)CO)C3=O)n(C)n1`, the cytotoxicity call in assay [1] and in assay [2] was “inactive” each time. For the same molecule, the growth inhibition call in assay [3] was “inactive”.
For the molecule `C[C@H]1CN([C@@H](C)CO)C(=O)c2cccc(NC(=O)C3CCCCC3)c2O[C@H]1CN(C)C(=O)Nc1ccc(C(F)(F)F)cc1`, the cytotoxicity call in assay [1] and in assay [2] was “inactive” each time. In assay [3], the growth inhibition call is “inactive”.
Take `COc1ccc(NC(=O)Nc2ccc3c(c2)C(=O)N([C@H](C)CO)C[C@H](C)[C@@H](CN(C)S(=O)(=O)c2cccs2)OCCCC[C@@H](C)O3)cc1`: the cytotoxicity call in assay [1] and in assay [2] was “inactive” in each case. The growth inhibition call in assay [3] was “inactive”.
As for `Cc1ccc2c(c1)C(=O)C[C@@H](c1ccc(Cl)cc1Cl)O2`, the cytotoxicity call in assay [1] and in assay [2] was “inactive” each time. In addition, the growth inhibition call in assay [3] is “inactive”.
For the molecule `Cc1noc(C)c1NC(=O)Nc1ccc2c(c1)C(=O)N([C@H](C)CO)C[C@H](C)[C@H](CN(C)C(=O)Nc1ccc(F)cc1)OCCCC[C@@H](C)O2`, the cytotoxicity call in assay [1] and in assay [2] was “inactive” in each case. The growth inhibition call in assay [3] was “inactive”.
As for `C[C@@H]1CN([C@@H](C)CO)C(=O)c2cc(NC(=O)CCN3CCOCC3)ccc2O[C@@H]1CN(C)CC1CCCCC1`, the cytotoxicity call in assay [1] and in assay [2] was “inactive” throughout. For the same molecule, in assay [3], the growth inhibition call is “inactive”.
As to `C[C@@H]1CN([C@@H](C)CO)C(=O)Cc2cc(NS(=O)(=O)c3ccccc3)ccc2O[C@@H]1CN(C)Cc1ccncc1`, the cytotoxicity call in assay [1] and in assay [2] was “inactive” throughout. The growth inhibition call in assay [3] was “inactive”.
Turning to `COc1ccc(CN(C)C[C@@H]2OCCCC[C@H](C)Oc3ccc(NC(=O)c4ccncc4)cc3C(=O)N([C@H](C)CO)C[C@H]2C)cc1`, the cytotoxicity call in assay [1] and in assay [2] was “inactive” each time. Also, in assay [3], the growth inhibition call is “inactive”.
On to `C[C@@H]1CN([C@H](C)CO)C(=O)c2cc(N(C)C)ccc2O[C@@H](C)CCCCO[C@H]1CN(C)Cc1ccc(C(=O)Nc2ccccc2N)cc1`, for which the cytotoxicity call in assay [1] and in assay [2] was “inactive” throughout. In addition, the growth inhibition call in assay [3] is “inactive”.
For `CC(C)[N+](C)(CCOC(=O)C1c2ccccc2Oc2ccccc21)C(C)C.[Br-]`, the cytotoxicity call in assay [1] and in assay [2] was “inactive” each time. Also, the growth inhibition call in assay [3] was “inactive”.
With `C[C@@H]1CCCCO[C@@H](CN(C)C(=O)Nc2ccc(C(F)(F)F)cc2)[C@H](C)CN([C@H](C)CO)C(=O)c2cc(NC(=O)Cc3ccccc3)ccc2O1`, the cytotoxicity call in assay [1] was “inactive”. In assay [2], the cytotoxicity call is “active”. The growth inhibition call in assay [3] was “inactive”.
On to `Cc1ccc(S(=O)(=O)Nc2ccc3c(c2)C(=O)N([C@@H](C)CO)C[C@@H](C)[C@H](CN(C)S(C)(=O)=O)OCCCC[C@@H](C)O3)cc1`, for which the cytotoxicity call in assay [1] and in assay [2] was “inactive” each time. In assay [3], the growth inhibition call is “inactive”.
Turning to `C[C@H]1CN([C@@H](C)CO)C(=O)c2cccc(NC(=O)c3nc4ccccc4s3)c2O[C@H]1CN(C)CC1CCCCC1`, the cytotoxicity call in assay [1] and in assay [2] was “inactive” in each case. Also, the growth inhibition call in assay [3] was “inactive”.
For the molecule `Cc1ccc(S(=O)(=O)Nc2cccc3c2O[C@H](CN(C)Cc2ccc(-c4ccccc4)cc2)[C@H](C)CN([C@H](C)CO)C3=O)cc1`, the cytotoxicity call in assay [1] was “inactive”. Also, the cytotoxicity call in assay [2] is “active”. Also, the growth inhibition call in assay [3] was “inactive”.
Regarding `C[C@@H]1CN([C@H](C)CO)C(=O)c2cc(NC(=O)Cc3cn(C)c4ccccc34)ccc2O[C@@H]1CN(C)Cc1ccc(C(F)(F)F)cc1`, the cytotoxicity call in assay [1] and in assay [2] was “active” throughout. The growth inhibition call in assay [3] was “inactive”.
As for `COc1ccc(NC(=O)Nc2ccc3c(c2)C(=O)N([C@H](C)CO)C[C@H](C)[C@@H](CN(C)CC2CCCCC2)OCCCC[C@@H](C)O3)cc1`, the cytotoxicity call in assay [1] and in assay [2] was “inactive” throughout. In addition, the growth inhibition call in assay [3] was “inactive”.
With `C[C@H](CO)N1C[C@H](C)[C@H](CN(C)S(=O)(=O)c2ccc(Cl)cc2)Oc2ccc(NC(=O)C3CC3)cc2C1=O`, the cytotoxicity call in assay [1] and in assay [2] was “inactive” in each case. Also, the growth inhibition call in assay [3] is “inactive”.
With `COCC#Cc1ccc2c(c1)O[C@H](CN(C)C(=O)Nc1ccccc1F)[C@@H](C)CN([C@H](C)CO)S2(=O)=O`, the cytotoxicity call in assay [1] and in assay [2] was “inactive” throughout. Further, in assay [3], the growth inhibition call is “inactive”.
Consider `C[C@@H]1CN([C@@H](C)CO)C(=O)Cc2cc(NC(=O)Nc3ccc(C(F)(F)F)cc3)ccc2O[C@@H]1CN(C)C(=O)Nc1ccc2c(c1)OCO2`, for which the cytotoxicity call in assay [1] is “inactive”. For the same molecule, the cytotoxicity call in assay [2] is “active”. The growth inhibition call in assay [3] is “inactive”.
For `CCc1nc2ccc(C(=O)Nc3cccc(OCC(=O)N(C)C)c3)cn2c1N(C)C(=O)c1ccncc1`, the cytotoxicity call in assay [1] and in assay [2] was “inactive” in each case. In addition, the growth inhibition call in assay [3] is “inactive”.
Consider `Cc1ccc(S(=O)(=O)N2C[C@H](O)COC[C@H]3O[C@@H](CC(=O)NCCN4CCCCC4)CC[C@@H]32)cc1`, for which the cytotoxicity call in assay [1] and in assay [2] was “inactive” in each case. In addition, the growth inhibition call in assay [3] is “inactive”.
Consider `CCCNC(=O)[C@@]1(Sc2ccc(C)cc2)CC(=O)N(Cc2cc(C(F)(F)F)cc(C(F)(F)F)c2)[C@@H]1c1ccc(CO)cc1`, for which the cytotoxicity call in assay [1] and in assay [2] was “inactive” each time. Further, the growth inhibition call in assay [3] is “inactive”.
Regarding `O=C(C[C@@H]1CC[C@@H]2[C@H](COC[C@H](O)CN2C(=O)Nc2cccc(F)c2)O1)NCc1ccccc1Cl`, the cytotoxicity call in assay [1] and in assay [2] was “inactive” in each case. Moreover, the growth inhibition call in assay [3] was “inactive”.
